This is one part of the list. Binding of human transcription factors and regulators to the viral nucleoprotein by AlphaScreen, crude cell-free proteins, amounts not normalised, one pass. Fold of the Venus control; higher = more signal. No active / inactive call. Single-pass screen; sequences are the whole Swiss-Prot entries looked up by name.

B1: ZBTB11, O95625 (protein)
chain: MSSEESYRAILRYLTNEREPYAPGTEGNVKRKIRKAAACYVVRGGTLYYQRRQRHRKTFAELEVVLQPERRRDLIEAAHLGPGGTHHTRHQTWHYLSKTYWWRGILKQVKDYIKQCSKCQEKLDRSRPISDVSEMLEELGLDLESGEESNESEDDLSNFTSSPTTASKPAKKKPVSKHELVFVDTKGVVKRSSPKHCQAVLKQLNEQRLSNQFCDVTLLIEGEEYKAHKSVLSANSEYFRDLFIEKGAVSSHEAVVDLSGFCKASFLPLLEFAYTSVLSFDFCSMADVAILARHLFMSEVLEICESVHKLMEEKQLTVYKKGEVQTVASTQDLRVQNGGTAPPVASSEGTTTSLPTELGDCEIVLLVNGELPEAEQNGEVGRQPEPQVSSEAESALSSVGCIADSHPEMESVDLITKNNQTELETSNNRENNTVSNIHPKLSKENVISSSPEDSGMGNDISAEDICAEDIPKHRQKVDQPLKDQENLVASTAKTDFGPDDDTYRSRLRQRSVNEGAYIRLHKGMEKKLQKRKAVPKSAVQQVAQKLVQRGKKMKQPKRDAKENTEEASHKCGECGMVFQRRYALIMHKLKHERARDYKCPLCKKQFQYSASLRAHLIRHTRKDAPSSSSSNSTSNEASGTSSEKGRTKREFICSICGRTLPKLYSLRIHMLKHTGVKPHACQVCGKTFIYKHGLKLHQSLHQSQKQFQCELCVKSFVTKRSLQEHMSIHTGESKYLCSVCGKSFHRGSGLSKHFKKHQPKPEVRGYHCTQCEKSFFEARDLRQHMNKHLGVKPFQCQFCDKCYSWKKDWYSHVKSHSVTEPYRCNICGKEFYEKALFRRHVKKATHGKKGRAKQNLERVCEKCGRKFTQLREYRRHMNNHEGVKPFECLTCGVAWADARSLKRHVRTHTGERPYVCPVCSEAYIDARTLRKHMTKFHRDYVPCKIMLEKDTLQFHNQGTQVAHAVSILTAGMQEQESSGPQELETVVVTGETMEALEAVAATEEYPSVSTLSDQSIMQVVNYVLAQQQGQKLSEVAEAIQTVKVEVAHISGGE
B2: PARK7, Q99497 (protein)
chain: MASKRALVILAKGAEEMETVIPVDVMRRAGIKVTVAGLAGKDPVQCSRDVVICPDASLEDAKKEGPYDVVVLPGGNLGAQNLSESAAVKEILKEQENRKGLIAAICAGPTALLAHEIGFGSKVTTHPLAKDKMMNGGHYTYSENRVEKDGLILTSRGPGTSFEFALAIVEALNGKEVAAQVKAPLVLKD
B3: ZBTB14, O43829 (protein)
chain: MEFFISMSETIKYNDDDHKTLFLKTLNEQRLEGEFCDIAIVVEDVKFRAHRCVLAACSTYFKKLFKKLEVDSSSVIEIDFLRSDIFEEVLNYMYTAKISVKKEDVNLMMSSGQILGIRFLDKLCSQKRDVSSPDENNGQSKSKYCLKINRPIGDAADTQDDDVEEIGDQDDSPSDDTVEGTPPSQEDGKSPTTTLRVQEAILKELGSEEVRKVNCYGQEVESMETPESKDLGSQTPQALTFNDGMSEVKDEQTPGWTTAASDMKFEYLLYGHHREQIACQACGKTFSDEGRLRKHEKLHTADRPFVCEMCTKGFTTQAHLKEHLKIHTGYKPYSCEVCGKSFIRAPDLKKHERVHSNERPFACHMCDKAFKHKSHLKDHERRHRGEKPFVCGSCTKAFAKASDLKRHENNMHSERKQVTPSAIQSETEQLQAAAMAAEAEQQLETIACS
B4: HES6, Q96HZ4 (protein)
chain: MAPPAAPGRDRVGREDEDGWETRGDRKARKPLVEKKRRARINESLQELRLLLAGAEVQAKLENAEVLELTVRRVQGVLRGRAREREQLQAEASERFAAGYIQCMHEVHTFVSTCQAIDATVAAELLNHLLESMPLREGSSFQDLLGDALAGPPRAPGRSGWPAGGAPGSPIPSPPGPGDDLCSDLEEAPEAELSQAPAEGPDLVPAALGSLTTAQIARSVWRPW
B5: TRIM29, Q14134 (protein)
chain: MEAADASRSNGSSPEARDARSPSGPSGSLENGTKADGKDAKTTNGHGGEAAEGKSLGSALKPGEGRSALFAGNEWRRPIIQFVESGDDKNSNYFSMDSMEGKRSPYAGLQLGAAKKPPVTFAEKGELRKSIFSESRKPTVSIMEPGETRRNSYPRADTGLFSRSKSGSEEVLCDSCIGNKQKAVKSCLVCQASFCELHLKPHLEGAAFRDHQLLEPIRDFEARKCPVHGKTMELFCQTDQTCICYLCMFQEHKNHSTVTVEEAKAEKETELSLQKEQLQLKIIEIEDEAEKWQKEKDRIKSFTTNEKAILEQNFRDLVRDLEKQKEEVRAALEQREQDAVDQVKVIMDALDERAKVLHEDKQTREQLHSISDSVLFLQEFGALMSNYSLPPPLPTYHVLLEGEGLGQSLGNFKDDLLNVCMRHVEKMCKADLSRNFIERNHMENGGDHRYVNNYTNSFGGEWSAPDTMKRYSMYLTPKGGVRTSYQPSSPGRFTKETTQKNFNNLYGTKGNYTSRVWEYSSSIQNSDNDLPVVQGSSSFSLKGYPSLMRSQSPKAQPQTWKSGKQTMLSHYRPFYVNKGNGIGSNEAP
B6: CSRNP3, Q8WYN3 (protein)
chain: MSGILKRKFEEVDGSSPCSSVRESDDEVSSSESADSGDSVNPSTSSHFTPSSILKREKRLRTKNVHFSCVTVYYFTRRQGFTSVPSQGGSTLGMSSRHNSVRQYTLGEFAREQERLHREMLREHLREEKLNSLKLKMTKNGTVESEEASTLTLDDISDDDIDLDNTEVDEYFFLQPLPTKKRRALLRASGVKKIDVEEKHELRAIRLSREDCGCDCRVFCDPDTCTCSLAGIKCQVDRMSFPCGCTKEGCSNTAGRIEFNPIRVRTHFLHTIMKLELEKNREQQIPTLNGCHSEISAHSSSMGPVAHSVEYSIADSFEIETEPQAAVLHLQSAEELDCQGEEEEEEEDGSSFCSGVTDSSTQSLAPSESDEEEEEEEEEEEEEDDDDDKGDGFVEGLGTHAEVVPLPSVLCYSDGTAVHESHAKNASFYANSSTLYYQIDSHIPGTPNQISENYSERDTVKNGTLSLVPYTMTPEQFVDYARQAEEAYGASHYPAANPSVIVCCSSSENDSGVPCNSLYPEHRSNHPQVEFHSYLKGPSQEGFVSALNGDSHISEHPAENSLSLAEKSILHEECIKSPVVETVPV

This experiment concerns the target nucleoprotein N of Crimean-Congo hemorrhagic fever virus. Put plainly: AlphaScreen luminescence signal relative to Venus negative control (fold); higher = stronger binding to CCHFV N. Here is the method:
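AlphaScreen binding of cell-free made, FLAG-GST-tagged human transcription factors and regulators (crude translation products) to biotinylated N protein; signal as fold of the FLAG-GST-Venus control. One pass.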
On the technique in general: Bead proximity is the source of the signal in Alpha formats.
Regarding B1, the AlphaScreen luminescence signal is 3.53.

B2 returned an AlphaScreen luminescence signal of 1.12.

As to B3, the AlphaScreen luminescence signal was found to be 3.72.

As to B4, the AlphaScreen luminescence signal was 1.86.

The molecule B5 yielded an AlphaScreen luminescence signal of 6.19.

On to B6, for which the AlphaScreen luminescence signal is 2.65.

These data come from the supplement of paper PMC12423691.
